In publication PMC4336329 (PLoS ONE, 2015):
Among all 310,000 compounds or so, about 2,200 (0.71%) showed an effect of 50% or more. The effect is printed as a negative number. This is one part of the list.

What follows are compounds tested against human ether-à-go-go-related gene (hERG) potassium channel (human, UniProt Q12809) (assay: primary screen, population patch clamp on CHO cells stably expressing hERG).
human ether-à-go-go-related gene (hERG) potassium channel, sequence (Q12809 whole entry, looked up): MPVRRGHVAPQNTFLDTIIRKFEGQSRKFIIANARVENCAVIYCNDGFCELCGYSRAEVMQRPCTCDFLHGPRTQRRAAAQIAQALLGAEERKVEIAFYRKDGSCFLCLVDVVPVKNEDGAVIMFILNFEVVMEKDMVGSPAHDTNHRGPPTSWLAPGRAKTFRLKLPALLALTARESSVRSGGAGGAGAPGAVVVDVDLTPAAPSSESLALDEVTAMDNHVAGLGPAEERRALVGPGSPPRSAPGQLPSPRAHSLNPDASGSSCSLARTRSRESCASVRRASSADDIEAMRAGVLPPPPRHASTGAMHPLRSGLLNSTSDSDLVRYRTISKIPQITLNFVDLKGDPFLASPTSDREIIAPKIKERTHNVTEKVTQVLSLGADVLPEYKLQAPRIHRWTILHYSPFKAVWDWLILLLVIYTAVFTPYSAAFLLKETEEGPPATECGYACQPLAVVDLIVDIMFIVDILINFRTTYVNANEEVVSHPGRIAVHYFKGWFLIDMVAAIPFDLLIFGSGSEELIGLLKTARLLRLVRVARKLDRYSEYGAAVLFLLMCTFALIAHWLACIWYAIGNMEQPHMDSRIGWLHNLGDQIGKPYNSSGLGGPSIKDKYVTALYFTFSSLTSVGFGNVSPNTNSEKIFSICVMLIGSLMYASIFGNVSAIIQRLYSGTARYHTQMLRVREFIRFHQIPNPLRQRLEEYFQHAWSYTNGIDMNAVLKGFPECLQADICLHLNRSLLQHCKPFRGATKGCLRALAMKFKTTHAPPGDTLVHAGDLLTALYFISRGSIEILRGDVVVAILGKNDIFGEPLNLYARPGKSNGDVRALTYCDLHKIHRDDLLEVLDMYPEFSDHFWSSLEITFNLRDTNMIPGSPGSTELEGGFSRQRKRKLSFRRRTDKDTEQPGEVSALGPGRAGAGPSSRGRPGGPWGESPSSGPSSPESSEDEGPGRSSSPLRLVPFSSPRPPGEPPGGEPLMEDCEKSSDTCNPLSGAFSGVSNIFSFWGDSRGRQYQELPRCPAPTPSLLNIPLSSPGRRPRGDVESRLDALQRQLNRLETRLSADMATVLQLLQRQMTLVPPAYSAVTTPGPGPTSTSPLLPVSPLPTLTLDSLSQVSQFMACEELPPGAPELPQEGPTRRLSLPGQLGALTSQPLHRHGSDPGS

Point of comparison: `COc1cc2c(cc1O)CC[n+]1cc3c(OC)c(OC)ccc3cc1-2`, “hERG current change (%, negative = inhibition) at 1uM” value 0.2%. Against it:
- Cn1cc(Cl)c(C(=O)N/N=C/c2ccc3c4c(cccc24)CC3)n1 — higher, 19.1%
- Cc1ccc2nc(C)/c(=N\O)c(C)nc2c1 — higher, 0.212%
- Cc1ccc(-c2[nH]c(-c3ccccc3)nc2SCC(=O)NCC2CCCO2)cc1 (stereo not shown) — higher, 12.6%
- COc1ccc(CCN2CC(C(=O)NCCc3ccc(C)cc3)CC2=O)cc1OC (stereo not shown) — higher, 8.06%
- Cc1nnc(SCCCn2c(N3CCCCC3)nc3c2c(=O)[nH]c(=O)n3C)s1 — lower, -4.1%
- Cc1ccc(S(=O)(=O)N(CC(=O)N/N=C/c2ccc(F)cc2)c2cccc3cccnc23)cc1 — higher, 9.12%
- Cc1ccc(/C=N/N2CCOCC2)s1 — higher, 10.9%
- CC(=O)N(C)c1ccc(NC(=S)Nc2ccc(C(C)C)cc2)cc1.Cl — higher, 12.2%
- Cc1ccc(C)c(N(CC(=O)N2CCCCCC2)S(C)(=O)=O)c1 — higher, 10.9%
- CCCCNC(=O)c1nnn(-c2ccccc2)c1N — higher, 0.715%
- O=C(CN1CCN(S(=O)(=O)c2ccc(F)cc2)CC1)Nc1ccccc1F — lower, -8.92%
- O=C(CSc1nc2ccccc2s1)N1CCN(C(=O)c2ccco2)CC1 — lower, -14.7%
- Cc1cc(C)cc(N(CC(=O)N2CCc3ccccc32)S(=O)(=O)c2c(C)noc2C)c1 — lower, -5.87%
- CC(=O)Nc1cccc(NC(=S)Nc2ccc(F)cc2F)c1 — higher, 3.18%
- CCOc1ccccc1N1CCN(CC(=O)Nc2cc(C)on2)CC1 — higher, 10.8%
- O=C(Cc1ccc(-n2cccc2)cc1)N1CCN(c2ccccc2F)CC1 — higher, 3.88%
- Cc1ccc(NC(C)C(=O)N/N=C/c2c[nH]c3ccccc23)cc1 (stereo not shown) — higher, 6.05%
- c1ccc(-c2cc(-c3ccccc3)on2)cc1 — higher, 3.24%
- COc1ccc(NC(C)C(=O)Nc2ccc(C(C)(C)C)cc2)cc1Cl (stereo not shown) — higher, 3.39%
- O=C1CCCC(=O)C1=C1SCCCS1 — higher, 14.7%
- N#C/C(=C\Nc1ccc(Cl)cc1)S(=O)(=O)c1ccccn1 — higher, 2.72%
- Cc1ccn(CCC(=O)NC2CC(C)(C)Cc3c2cnn3-c2ccccc2C)n1 (stereo not shown) — lower, -0.399%
- CCOC(=O)C1CCN(c2c(N3CCN(Cc4ccccc4)CC3)c(=O)c2=O)CC1 — lower, -66.6%
- CCNc1nc(NC(N)=S)nc(NC(C)(C)C)n1 — higher, 9.58%
- COc1cc2sc3ccc(-c4ccc(N(C)C)nc4)cc3c(=O)c2cc1OC — higher, 14.6%
- Nc1c(-c2ccccc2)n[nH]c1-c1ccccc1 — higher, 3%
- CCOn1c(=O)c(-c2cccc([N+](=O)[O-])c2)[n+]([O-])c2ccccc21 — higher, 14.3%
- COc1cccc(CNC(=O)Cn2nc(C)c([N+](=O)[O-])c2C)c1 — higher, 11%
- O=C(CSc1nccc(-c2cccs2)n1)Nc1ccccc1 — higher, 11.4%
- CCCc1nnc(NC(=O)CC(=O)OCC)s1 — lower, -0.758%
- CCCCn1nnc(NC(=S)NC(=O)c2cccs2)n1 — higher, 8.66%
- Cc1coc2cc3oc(=O)c(CCC(=O)N[C@@H](CCCNC(N)=O)C(=O)O)c(C)c3cc12 — higher, 12.1%
- Nc1ccn(Cc2ccccc2F)n1 — higher, 12.1%
- Cc1cc(C)n2nc(SC(C)C(=O)Nc3ccc(Cl)cn3)nc2n1 (stereo not shown) — higher, 3.17%
- CCCCn1c(O)c(/C(CC)=N/N2CCCCC2c2cccnc2)c(=O)[nH]c1=S (stereo not shown) — lower, -0.161%
- Cc1ccc(S(=O)(=O)/C(C#N)=C/c2c(N3CCC(C(N)=O)CC3)nc3c(C)cccn3c2=O)cc1 — lower, -16.7%
- Cc1ccc(Nc2nnc(C)c(=O)[nH]2)cc1 — higher, 6.76%
- CCOC(=O)/C(C#N)=C/c1c(Oc2cccc(C)c2)nc2ccccn2c1=O — lower, -10.2%
- O=C(/C=C/c1ccc(Br)cc1)NCCCn1ccnc1 — lower, -23.9%
- COc1ccccc1N(C)S(=O)(=O)c1ccc(C(=O)NC2CCCCC2)cc1 — higher, 8.88%
- O=C(O)C1CSC2(c3ccc(Br)cc3)CCC(=O)N12 (stereo not shown) — higher, 7.22%
- COC(CNC(=O)c1c[nH]c2ccc(S(=O)(=O)N3CCC4(CC3)OCCO4)cc2c1=O)OC — higher, 5.52%
- Cc1nc(SCC#N)c2c(C)c(C)sc2n1 — higher, 15.5%
- Cc1ccc(SCCN2CCN(C)CC2)cc1.Cl — higher, 13.4%
- O=C1CCc2cc(NS(=O)(=O)c3ccccc3)cc3c2N1CC3 — higher, 3.85%
- COc1ccc(C(=O)OCCc2sc[n+](CC(=O)c3ccccc3)c2C)cc1.[Br-] — higher, 9.69%
- COc1ccc(CN(C)CC(=O)Nc2ccc(N3CCOCC3)cc2)cc1OC — higher, 11.2%
- CCCCCn1c(=O)c(C(=O)Nc2ccccc2C)c(O)c2ccccc21 — higher, 20.5%
- O=[N+]([O-])c1cn(Cc2ccccc2)cn1 — higher, 7.46%
- CN(c1ccc(O)cc1)c1nc(O)c(C2=c3ccccc3=NC2=O)s1 — higher, 8.57%
- CCc1cccc2c(SCC(=O)NCC3CCCO3)nc(-c3ccc(F)cc3)nc12 (stereo not shown) — higher, 13.3%
- CSc1nc(=S)n(Cc2ccccc2)c(C)c1C(C)=O — higher, 10.4%
- COc1ccc(NC(=O)c2cc(S(=O)(=O)N3CCS(=O)(=O)CC3)ccc2Cl)cc1 — higher, 6.7%
- COc1ccc(S(=O)(=O)N2CCCCCC2)cc1C(=O)NCCc1ccccc1 — higher, 1.5%
- COc1cccc(CNC(=O)C2=C(C)C(=O)OC23CCC(C)CC3)c1 (stereo not shown) — higher, 1.11%
- CC1CCN(C(=O)CSc2nc(C(C)C)nc3c2c(=O)n(C)c(=O)n3C)CC1 — higher, 6.77%
- COc1ccccc1NS(=O)(=O)c1ccc2c(c1)n(C)c(=O)n2C — lower, -0.0251%
